{
  "sequences": {"note": "The chains behind the UniProt entries cited, without tags or fusion partners. Where a name states a change or a piece, a line headed by the entry shows the natural chain unless it says otherwise. A line that says so, or that is headed by a name, gives the form on record, which may keep a tag or linker. Residues count along the entry.", "UniProt Q3URK3": "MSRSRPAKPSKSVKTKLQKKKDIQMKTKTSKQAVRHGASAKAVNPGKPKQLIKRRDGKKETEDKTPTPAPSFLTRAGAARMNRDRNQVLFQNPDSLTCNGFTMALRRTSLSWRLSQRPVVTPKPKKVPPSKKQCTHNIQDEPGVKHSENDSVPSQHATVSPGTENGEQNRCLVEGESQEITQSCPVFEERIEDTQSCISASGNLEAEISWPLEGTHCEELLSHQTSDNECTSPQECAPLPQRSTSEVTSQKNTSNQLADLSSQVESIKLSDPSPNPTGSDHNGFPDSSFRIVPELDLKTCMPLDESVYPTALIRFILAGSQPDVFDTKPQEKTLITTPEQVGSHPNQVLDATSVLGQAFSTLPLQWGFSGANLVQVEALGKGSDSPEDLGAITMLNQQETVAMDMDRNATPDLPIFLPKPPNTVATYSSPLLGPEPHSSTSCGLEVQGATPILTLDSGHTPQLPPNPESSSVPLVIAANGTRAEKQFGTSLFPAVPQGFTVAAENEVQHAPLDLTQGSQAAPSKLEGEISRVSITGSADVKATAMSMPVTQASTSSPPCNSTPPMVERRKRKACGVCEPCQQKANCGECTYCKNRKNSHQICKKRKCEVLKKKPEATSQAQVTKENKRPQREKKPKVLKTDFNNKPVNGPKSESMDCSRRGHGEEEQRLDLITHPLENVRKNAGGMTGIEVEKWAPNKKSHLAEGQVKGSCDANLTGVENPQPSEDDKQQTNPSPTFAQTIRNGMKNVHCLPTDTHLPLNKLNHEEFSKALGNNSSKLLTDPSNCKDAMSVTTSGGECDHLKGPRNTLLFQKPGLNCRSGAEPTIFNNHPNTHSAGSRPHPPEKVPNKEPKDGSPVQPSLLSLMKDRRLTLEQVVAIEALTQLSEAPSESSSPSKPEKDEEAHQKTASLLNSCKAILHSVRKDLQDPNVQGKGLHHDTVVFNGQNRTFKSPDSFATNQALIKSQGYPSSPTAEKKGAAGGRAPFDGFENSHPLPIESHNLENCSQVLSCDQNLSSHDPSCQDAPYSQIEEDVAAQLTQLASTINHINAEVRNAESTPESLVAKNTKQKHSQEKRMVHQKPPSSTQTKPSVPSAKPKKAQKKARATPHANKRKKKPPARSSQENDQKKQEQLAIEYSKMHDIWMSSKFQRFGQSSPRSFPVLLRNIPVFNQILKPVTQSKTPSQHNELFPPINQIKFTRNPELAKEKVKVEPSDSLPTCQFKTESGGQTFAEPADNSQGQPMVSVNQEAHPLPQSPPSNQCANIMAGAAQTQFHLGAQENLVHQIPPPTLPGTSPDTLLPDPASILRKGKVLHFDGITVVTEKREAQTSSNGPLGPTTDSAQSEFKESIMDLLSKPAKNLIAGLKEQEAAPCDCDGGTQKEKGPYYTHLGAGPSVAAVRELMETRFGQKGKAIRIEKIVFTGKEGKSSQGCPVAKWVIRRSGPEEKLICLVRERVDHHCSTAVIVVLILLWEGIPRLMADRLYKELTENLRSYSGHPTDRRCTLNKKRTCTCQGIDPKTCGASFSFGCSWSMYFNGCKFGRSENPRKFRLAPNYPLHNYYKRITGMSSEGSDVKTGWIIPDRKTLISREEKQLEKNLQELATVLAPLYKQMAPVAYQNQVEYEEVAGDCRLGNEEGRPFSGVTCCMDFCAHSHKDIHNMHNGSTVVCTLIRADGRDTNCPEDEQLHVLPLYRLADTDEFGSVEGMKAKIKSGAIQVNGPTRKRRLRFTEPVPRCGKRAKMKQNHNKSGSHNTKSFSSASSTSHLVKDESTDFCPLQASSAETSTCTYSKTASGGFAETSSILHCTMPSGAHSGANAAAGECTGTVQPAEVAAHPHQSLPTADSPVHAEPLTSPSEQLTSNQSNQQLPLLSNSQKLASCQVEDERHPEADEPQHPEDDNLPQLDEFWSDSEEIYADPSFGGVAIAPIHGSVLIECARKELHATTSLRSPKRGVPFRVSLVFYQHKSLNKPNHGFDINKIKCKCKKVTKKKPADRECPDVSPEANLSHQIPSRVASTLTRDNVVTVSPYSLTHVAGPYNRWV", "(Flag)3-TET1 1–1472 (WT)": "residues 1-1472 of Q3URK3", "(Flag)3-TET1 1–1379 (WT)": "residues 1-1379 of Q3URK3", "(Flag)3-TET1 734–1202": "residues 734-1202 of Q3URK3", "(Flag)3-TET1 734–1181": "residues 734-1181 of Q3URK3", "(Flag)3-TET1 734–1155": "residues 734-1155 of Q3URK3", "(Flag)3-TET1 734–1131": "residues 734-1131 of Q3URK3", "(Flag)3-TET1 full-length Δ2 (Δ1132–1202) (Q3URK3, form named)": "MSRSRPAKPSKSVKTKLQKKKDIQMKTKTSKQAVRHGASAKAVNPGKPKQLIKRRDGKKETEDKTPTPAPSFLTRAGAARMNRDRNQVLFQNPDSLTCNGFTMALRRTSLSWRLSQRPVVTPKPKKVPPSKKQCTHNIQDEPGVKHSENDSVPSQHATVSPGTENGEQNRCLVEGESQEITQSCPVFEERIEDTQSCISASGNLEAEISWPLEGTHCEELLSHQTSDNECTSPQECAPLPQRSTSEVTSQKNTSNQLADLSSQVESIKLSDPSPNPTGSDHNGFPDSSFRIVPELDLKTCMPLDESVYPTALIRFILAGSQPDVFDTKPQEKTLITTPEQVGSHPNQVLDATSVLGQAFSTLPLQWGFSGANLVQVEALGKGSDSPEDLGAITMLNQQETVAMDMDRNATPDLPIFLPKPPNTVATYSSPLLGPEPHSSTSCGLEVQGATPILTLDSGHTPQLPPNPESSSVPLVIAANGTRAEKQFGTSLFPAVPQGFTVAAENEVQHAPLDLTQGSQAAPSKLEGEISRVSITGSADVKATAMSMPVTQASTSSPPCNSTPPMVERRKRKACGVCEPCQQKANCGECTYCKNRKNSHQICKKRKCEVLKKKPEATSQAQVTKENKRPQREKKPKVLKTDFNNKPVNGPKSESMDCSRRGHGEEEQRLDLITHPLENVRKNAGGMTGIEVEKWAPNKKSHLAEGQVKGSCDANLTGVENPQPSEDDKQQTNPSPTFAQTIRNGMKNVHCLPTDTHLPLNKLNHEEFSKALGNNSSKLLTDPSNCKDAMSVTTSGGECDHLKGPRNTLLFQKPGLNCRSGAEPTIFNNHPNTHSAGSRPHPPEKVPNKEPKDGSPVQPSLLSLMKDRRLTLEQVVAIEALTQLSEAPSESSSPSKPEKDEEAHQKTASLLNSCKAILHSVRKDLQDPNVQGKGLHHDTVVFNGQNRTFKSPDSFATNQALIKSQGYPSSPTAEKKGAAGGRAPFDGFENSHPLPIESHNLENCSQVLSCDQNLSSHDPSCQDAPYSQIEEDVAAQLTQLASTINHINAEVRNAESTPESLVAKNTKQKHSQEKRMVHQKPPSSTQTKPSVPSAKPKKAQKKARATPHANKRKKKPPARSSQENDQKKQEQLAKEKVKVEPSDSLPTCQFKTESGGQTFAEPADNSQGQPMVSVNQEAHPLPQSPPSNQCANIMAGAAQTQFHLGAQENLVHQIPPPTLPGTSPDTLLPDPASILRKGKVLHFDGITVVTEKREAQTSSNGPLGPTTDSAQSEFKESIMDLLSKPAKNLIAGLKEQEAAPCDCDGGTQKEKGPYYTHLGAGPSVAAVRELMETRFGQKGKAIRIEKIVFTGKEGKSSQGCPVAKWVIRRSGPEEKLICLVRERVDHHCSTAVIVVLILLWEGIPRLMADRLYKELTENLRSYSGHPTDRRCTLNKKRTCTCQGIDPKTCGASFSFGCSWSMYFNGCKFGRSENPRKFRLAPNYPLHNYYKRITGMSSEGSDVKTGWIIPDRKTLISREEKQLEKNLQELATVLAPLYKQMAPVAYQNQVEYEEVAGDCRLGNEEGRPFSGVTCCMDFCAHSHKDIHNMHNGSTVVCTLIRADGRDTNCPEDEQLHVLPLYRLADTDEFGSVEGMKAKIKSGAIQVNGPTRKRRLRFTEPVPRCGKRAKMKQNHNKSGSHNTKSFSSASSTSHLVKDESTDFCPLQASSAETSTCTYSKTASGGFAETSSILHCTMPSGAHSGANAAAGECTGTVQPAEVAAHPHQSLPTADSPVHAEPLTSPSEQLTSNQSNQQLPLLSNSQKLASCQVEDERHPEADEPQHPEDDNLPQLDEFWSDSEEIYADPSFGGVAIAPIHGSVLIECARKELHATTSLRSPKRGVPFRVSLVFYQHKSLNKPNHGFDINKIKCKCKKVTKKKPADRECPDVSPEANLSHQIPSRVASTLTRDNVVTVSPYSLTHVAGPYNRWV", "(Flag)3-TET1 full-length triple-mutant (Δ109–120 + Δ1132–1202 + 1522–1547 aromatic→A) (Q3URK3, form named)": "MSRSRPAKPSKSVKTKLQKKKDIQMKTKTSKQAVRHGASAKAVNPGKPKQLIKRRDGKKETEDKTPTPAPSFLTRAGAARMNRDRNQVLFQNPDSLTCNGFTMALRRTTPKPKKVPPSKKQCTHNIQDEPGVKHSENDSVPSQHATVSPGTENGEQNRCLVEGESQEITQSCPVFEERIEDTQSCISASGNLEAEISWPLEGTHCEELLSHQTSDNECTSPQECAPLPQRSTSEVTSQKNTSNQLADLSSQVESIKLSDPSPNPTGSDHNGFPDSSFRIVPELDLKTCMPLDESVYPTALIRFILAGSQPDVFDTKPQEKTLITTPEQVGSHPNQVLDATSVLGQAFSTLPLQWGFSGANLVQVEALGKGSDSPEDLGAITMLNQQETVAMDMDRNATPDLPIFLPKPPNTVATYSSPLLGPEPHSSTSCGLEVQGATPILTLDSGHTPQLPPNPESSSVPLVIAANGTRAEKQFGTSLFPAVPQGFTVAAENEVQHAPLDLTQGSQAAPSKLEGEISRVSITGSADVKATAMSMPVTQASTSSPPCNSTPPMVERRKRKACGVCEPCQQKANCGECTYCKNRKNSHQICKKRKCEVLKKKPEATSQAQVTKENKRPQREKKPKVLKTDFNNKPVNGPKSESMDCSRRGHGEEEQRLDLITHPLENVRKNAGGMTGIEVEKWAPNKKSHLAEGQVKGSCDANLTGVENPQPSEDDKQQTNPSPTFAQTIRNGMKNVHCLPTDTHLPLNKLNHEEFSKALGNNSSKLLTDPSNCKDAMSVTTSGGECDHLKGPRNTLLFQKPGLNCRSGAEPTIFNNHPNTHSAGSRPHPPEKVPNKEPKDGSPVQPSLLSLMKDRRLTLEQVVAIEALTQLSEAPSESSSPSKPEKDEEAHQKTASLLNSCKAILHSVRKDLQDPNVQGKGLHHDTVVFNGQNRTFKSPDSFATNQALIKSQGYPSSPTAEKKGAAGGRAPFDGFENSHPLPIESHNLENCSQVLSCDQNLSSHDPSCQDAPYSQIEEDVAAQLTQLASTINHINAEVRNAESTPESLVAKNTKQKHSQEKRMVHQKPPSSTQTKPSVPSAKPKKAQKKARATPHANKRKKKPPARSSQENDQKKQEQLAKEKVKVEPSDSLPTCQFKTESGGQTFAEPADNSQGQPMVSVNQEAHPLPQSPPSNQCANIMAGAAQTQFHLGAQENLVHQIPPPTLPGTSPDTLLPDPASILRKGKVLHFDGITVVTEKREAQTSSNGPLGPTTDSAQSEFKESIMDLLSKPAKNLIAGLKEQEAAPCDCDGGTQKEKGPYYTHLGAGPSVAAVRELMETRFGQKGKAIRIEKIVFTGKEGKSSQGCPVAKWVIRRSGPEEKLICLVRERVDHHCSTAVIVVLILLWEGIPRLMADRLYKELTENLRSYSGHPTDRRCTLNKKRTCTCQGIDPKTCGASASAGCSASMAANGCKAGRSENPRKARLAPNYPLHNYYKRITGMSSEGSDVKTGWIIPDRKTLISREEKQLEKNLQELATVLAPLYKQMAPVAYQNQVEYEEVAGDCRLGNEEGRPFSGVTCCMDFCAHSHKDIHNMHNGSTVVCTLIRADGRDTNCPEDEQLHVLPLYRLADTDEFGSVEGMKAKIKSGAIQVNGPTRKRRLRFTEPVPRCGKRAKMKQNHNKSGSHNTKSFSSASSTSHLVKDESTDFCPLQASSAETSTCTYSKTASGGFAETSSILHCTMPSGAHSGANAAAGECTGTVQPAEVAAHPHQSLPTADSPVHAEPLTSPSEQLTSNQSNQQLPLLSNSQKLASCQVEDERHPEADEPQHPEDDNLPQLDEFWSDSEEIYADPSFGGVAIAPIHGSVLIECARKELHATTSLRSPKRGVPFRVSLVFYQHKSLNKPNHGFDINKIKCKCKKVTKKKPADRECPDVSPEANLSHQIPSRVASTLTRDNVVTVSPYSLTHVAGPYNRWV"},
  "source": "paper PMC7763487",
  "about": "(2020)",
  "binders": {"B1": {"name": "(HA)3-NANOG (protein, UniProt Q80Z64 1-305)", "chain": "MSVGLPGPHSLPSSEEASNSGNASSMPAVFHPENYSCLQGSATEMLCTEAASPRPSSEDLPLQGSPDSSTSPKQKLSSPEADKGPEEEENKVLARKQKMRTVFSQAQLCALKDRFQKQKYLSLQQMQELSSILNLSYKQVKTWFQNQRMKCKRWQKNQWLKTSNGLIQKGSAPVEYPSIHCSYPQGYLVNASGSLSMWGSQTWTNPTWSSQTWTNPTWNNQTWTNPTWSSQAWTAQSWNGQPWNAAPLHNFGEDFLQPYVQLQQNFSASDLEVNLEATRESHAHFSTPQALELFLNYSVTPPGEI"}},
  "experiment_in_all_cases": "co-IP; (Flag)3-TET1 constructs and (HA)3-NANOG constructs expressed together in E14/T ESCs; Benzonase-treated nuclear protein extracts (350 mM KCl); TET1 immunoprecipitated by its Flag tag, immunoblot; for TET1(734–1169) also after phosphatase treatment of the extracts",
  "key": {"[1]": {"target": "(Flag)3-TET1 1–1472 (WT) (mouse) (UniProt Q3URK3)"}, "[2]": {"target": "(Flag)3-TET1 full-length Δ2 (Δ1132–1202) (mouse) (UniProt Q3URK3)"}, "[3]": {"target": "(Flag)3-TET1, full-length, wild-type (mouse) (UniProt Q3URK3)"}, "[4]": {"target": "(Flag)3-TET1 734–1202 (mouse) (UniProt Q3URK3)"}, "[5]": {"target": "(Flag)3-TET1 734–1181 (mouse) (UniProt Q3URK3)"}, "[6]": {"target": "(Flag)3-TET1 734–1131 (mouse) (UniProt Q3URK3)"}, "[7]": {"target": "(Flag)3-TET1 1–1379 (WT) (mouse) (UniProt Q3URK3)"}, "[8]": {"target": "(Flag)3-TET1 full-length triple-mutant (Δ109–120 + Δ1132–1202 + 1522–1547 aromatic→A) (mouse) (UniProt Q3URK3)"}, "[9]": {"target": "(Flag)3-TET1 734–1155 (mouse) (UniProt Q3URK3)"}, "[10]": {"target": "(Flag)3-TET1 full-length Δ1733-1901 (lacking the low-complexity insert) (mouse) (UniProt Q3URK3)"}, "[11]": {"target": "(Flag)3-TET1 1–1379 Δ1+2 (mouse) (UniProt Q3URK3)"}},
  "note": "These are yes or no findings as the source states them, for the method shown. Binding seen in cells or lysates may run through a third protein. Some entries that bind do so weakly or less than the wild type. Tags and fused reporters may be left off the sequences shown.",
  "data": [
    {"binder": "B1", "values": [
      {"measurement": "binding", "setting": "[1]", "result": "binds weakly"},
      {"measurement": "binding", "setting": "[2]", "result": "binds"},
      {"measurement": "binding", "setting": "[3]", "result": "binds"},
      {"measurement": "binding", "setting": "[4]", "result": "binds"},
      {"measurement": "binding", "setting": "[5]", "result": "binds"},
      {"measurement": "binding", "setting": "[6]", "result": "no binding"},
      {"measurement": "binding", "setting": "[7]", "result": "binds weakly"},
      {"measurement": "binding", "setting": "[8]", "result": "no binding"},
      {"measurement": "binding", "setting": "[9]", "result": "no binding"},
      {"measurement": "binding", "setting": "[10]", "result": "binds"},
      {"measurement": "binding", "setting": "[11]", "result": "no binding"}
    ]}
  ]
}
